From the supplement of paper PMC12217912
The other results are listed elsewhere or left out. Sequences were assembled here from the parent chain. Inactive controls read about 0.05.

B1: TEV protease; numbered along this chain (parent)
chain: MGESLFKGPRDYNPISSSICHLTNESDGHTTSLYGIGFGPFIITNKHLFRRNNGTLVVQSLHGVFKVKDTTTLQQHLVDGRDMIIIRMPKDFPPFPQKLKFREPQREERICLVTTNFQTKSMSSMVSDTSCTFPSGDGIFWKHWIQTKDGQCGSPLVSTRDGFIVGIHSASNFTNTNNYFTSVPKNFMELLTNQEAQQWVSGWRLNADSVLWGGHKVFMVKPEEPFQPVKEATQL

Variants of: B1
Experiment: raw area under fraction-flipped curve 0-4 h after induction (AUC4h, not background-subtracted), DNA-recorder readout of cleavage of the substrate (dimensionless); higher = more cleavage of the substrate by the protease variant
Settings: temperature: 34 °C; time window: 0-4 h after rhamnose induction
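Note: Bxb1 expression induced with 0.2% (w/v) L-rhamnose at OD600 near 0.5, cultures sampled hourly, flipped fraction per protease–substrate barcode pair counted by paired-end Illumina sequencing.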

Row | Variant | area with substrate ENLYFQC | area with substrate ENLYFQD | area with substrate ENLYFQK | area with substrate ENLYFQL | area with substrate ENLYFQM | area with substrate ENLYFQP | area with substrate ENLYFQR | area with substrate ENLYFQS | area with substrate ENLYFQV | area with substrate ENLYFQW | area with substrate ENLYFQY | area with substrate ENLYFQN | area with substrate ENLYFQG | area with substrate ENLYFQH | area with substrate ENLYFQQ | area with substrate ENLYFQI | area with substrate ENLYFQE | area with substrate ENLYFQT | area with substrate ENLYFQF
1 | R81W | 0.057 | 0.056 | 0.0595 | 0.0534 | 0.0563 | 0.0884 | 0.0604 | 0.0714 | 0.047 | 0.053 | 0.0574 |  |  |  |  |  |  |  | 
2 | I110Y | 0.0616 | 0.0626 |  |  |  |  |  | 0.0653 |  |  | 0.0583 | 0.0652 |  |  |  |  |  |  | 
3 | F180M | 0.112 |  |  |  | 0.0712 |  |  | 0.0995 |  |  | 0.0043 | 0.0502 | 0.118 | 0.0809 | 0.0264 |  |  |  | 
4 | N178K | 0.134 | 0.0031 |  |  |  | 0.0522 |  | 0.106 | 0.0197 | 0.0633 |  | 0.0718 |  |  |  | 0.0618 |  |  | 
5 | Q118K | 0.14 |  |  | 0.059 |  |  | 0.0545 | 0.0772 | 0.0575 | 0.065 |  |  |  |  | 0.0676 |  | 0.0576 | 0.0591 | 
6 | F133R | 0.134 | 0.0723 | 0.0593 | 0.0637 | 0.134 |  | 0.0616 | 0.137 |  | 0.0705 | 0.177 | 0.0813 | 0.118 | 0.108 |  | 0.0619 |  |  | 
7 | T71N | 0.132 |  |  |  | 0.0747 | 0.0505 | 0.0539 | 0.0897 | 0.0628 | 0.0405 | 0.0758 |  | 0.103 | 0.0635 | 0.0711 |  |  | 0.0586 | 0.0745
8 | T30I | 0.109 |  | 0.0656 | 0.0997 | 0.0817 | 0.0739 | 0.0554 | 0.0894 | 0.0683 | 0.0633 | 0.0538 | 0.088 | 0.058 | 0.0666 |  | 0.0762 |  | 0.0697 | 0.0656
9 | Q234A | 0.101 | 0.0611 | 0.0642 | 0.0607 | 0.0798 | 0.0641 | 0.0453 | 0.0979 | 0.0553 | 0.0595 | 0.0374 |  |  |  |  | 0.0621 |  | 0.0756 | 
10 | P225N | 0.106 | 0.0585 |  | 0.0617 |  | 0.114 | 0.0609 | 0.105 | 0.0957 | 0.07 | 0.0754 | 0.083 | 0.113 |  | 0.0807 |  |  |  | 
11 | I19A | 0.0782 |  | 0.0585 |  | 0.103 |  | 0.053 | 0.0931 |  | 0.0612 |  | 0.0741 | 0.0801 | 0.0781 |  | 0.0438 | 0.0528 | 0.0634 | 
12 | L5K | 0.0972 | 0.0739 | 0.0599 | 0.0616 | 0.114 |  | 0.0753 | 0.129 | 0.0473 | 0.0649 |  |  |  |  |  |  |  |  | 0.0773
13 | T114I | 0.124 |  | 0.0494 | 0.0672 | 0.0831 | 0.0597 | 0.0513 | 0.0953 | 0.0089 |  |  | 0.0717 |  | 0.0882 |  | 0.0596 |  | 0.048 | 0.0669
14 | D161M | 0.085 |  | 0.0532 |  | 0.0503 |  | 0.0128 | 0.0589 |  | 0.0464 |  |  | 0.118 |  | 0.0587 | 0.038 |  | 0.0443 | 
15 | K120S | 0.135 |  | 0.0646 | 0.062 | 0.0977 |  | 0.0577 | 0.105 | 0.0559 | 0.065 | 0.0813 | 0.0806 | 0.0899 |  |  | 0.061 |  | 0.0691 | 
16 | Q146W | 0.146 |  | 0.0381 |  |  |  |  | 0.152 | 0.0441 | 0.0724 | 0.0753 | 0.0993 |  |  |  | 0.053 |  |  | 

Row | Variant | area with substrate ENLYFQC | area with substrate ENLYFQD | area with substrate ENLYFQK | area with substrate ENLYFQL | area with substrate ENLYFQM | area with substrate ENLYFQP | area with substrate ENLYFQR | area with substrate ENLYFQS | area with substrate ENLYFQV | area with substrate ENLYFQW | area with substrate ENLYFQY | area with substrate ENLYFQN | area with substrate ENLYFQG | area with substrate ENLYFQH | area with substrate ENLYFQQ | area with substrate ENLYFQI | area with substrate ENLYFQE | area with substrate ENLYFQT | area with substrate ENLYFQF
17 | W212R | 0.0709 | 0.0667 | 0.0615 |  | 0.0529 | 0.0618 | 0.07 | 0.0608 |  | 0.0563 |  | 0.0576 |  |  |  |  | 0.0594 | 0.0533 | 0.0685
18 | F218M | 0.0933 |  | 0.0327 | 0.0593 | 0.0775 |  | 0.0596 | 0.104 |  | 0.0737 |  |  | 0.102 | 0.0687 | 0.0365 |  |  | 0.0511 | 
19 | R87S | 0.122 | 0.0675 | 0.0581 | 0.0635 | 0.0716 |  |  | 0.0798 |  | 0.0585 | 0.0705 | 0.0679 | 0.068 |  |  | 0.0435 |  | 0.0618 | 0.0683
20 | M125C | 0.121 |  |  | 0.0593 | 0.127 | 0.0605 |  | 0.103 | 0.0558 | 0.0582 |  |  |  |  | 0.076 | 0.0646 |  | 0.0656 | 
21 | R106M | 0.124 |  | 0.0784 | 0.055 |  |  | 0.0682 | 0.101 |  |  |  | 0.0688 |  | 0.0879 |  |  | 0.0093 |  | 0.102
22 | M125A | 0.15 |  | 0.0646 | 0.0568 | 0.112 |  | 0.0619 | 0.1 |  | 0.052 | 0.0724 |  | 0.124 |  |  | 0.0697 |  | 0.0486 | 0.0853
23 | V78L | 0.0982 |  | 0.058 | 0.0555 | 0.074 |  | 0.055 | 0.103 | 0.0325 |  |  | 0.079 |  | 0.0822 |  |  |  |  | 
24 | I84D | 0.0575 | 0.03 | 0.0842 | 0.0575 | 0.0475 | 0.0449 | 0.0637 | 0.0504 | 0.0478 | 0.0547 | 0.0321 | 0.0416 | 0.0445 | 0.0551 |  |  |  | 0.0613 | 
25 | S4Q | 0.113 |  | 0.0592 | 0.068 | 0.0847 | 0.0573 |  | 0.102 | 0.0657 |  | 0.0685 |  | 0.0979 |  | 0.0804 | 0.0538 | 0.0661 | 0.103 | 
26 | N186G | 0.109 |  |  |  |  |  |  | 0.108 |  |  |  |  |  |  |  | 0.0615 |  |  | 
27 | S127Q | 0.124 | 0.064 | 0.0647 | 0.0551 | 0.097 |  | 0.0622 | 0.11 | 0.0729 | 0.0652 | 0.0839 | 0.0707 | 0.0061 |  |  | 0.0633 |  |  | 0.101
28 | D27N | 0.102 |  | 0.0612 |  |  | 0.0651 | 0.0706 | 0.0885 |  |  | 0.0715 |  |  |  |  | 0.0539 |  | 0.0534 | 
29 | N175I | 0.0508 |  |  |  |  |  | 0.0636 | 0.0646 | 0.0572 | 0.0541 |  | 0.0604 |  |  |  |  |  |  | 0.0719
30 | S154T | 0.147 |  |  |  |  | 0.0807 | 0.0185 | 0.107 |  |  |  |  |  | 0.0708 |  | 0.0618 |  | 0.0654 | 0.0697
31 | T129N | 0.094 |  | 0.0699 | 0.0644 | 0.0805 |  | 0.0608 | 0.107 | 0.0696 | 0.06 | 0.0728 | 0.0753 | 0.107 | 0.0901 |  | 0.0631 |  |  | 0.104
